Assay results published in the RNAGym collection of RNA variant scans (doi:10.7554/elife.90254).
The source gives no read counts; variants with many changes may rest on few reads.

B1: LINE1-mini (parent)
chain: GGCAGAGCUCAACACAGCGUGGCAAAGUGGCUGUGGCUAGACUGCC

Variants of: B1
Assay: self-cleavage, relative activity (ratio to wild type); higher = more cleavage; in vitro, sequencing; the parent is a self-cleaving ribozyme
In the case of G7U A11G U20C G33C, the self-cleavage is reported as 0.01. C3A U28C G29A U34A G40U showed a self-cleavage of 0.21. Work on G7C C10U A16C G30A yielded a self-cleavage of 0.05. Work on A11G G30C U38A C45A yielded a self-cleavage of 0.01. In the case of G21U G30A G33A C37U, the self-cleavage is reported as 0.04. Variant G27C U32G A39C has a self-cleavage of 0.05. With A4G G17C G22A A24C the self-cleavage was 0.1. U28A C31U U38A gave a self-cleavage of 0.27. Work on G5A C15A A16G U28A C31U yielded a self-cleavage of 0.01. G5A A39U G44U showed a self-cleavage of 0.14. In the case of G5U A6C G33C, the self-cleavage is reported as 0.07. For A11G A14G G21U C45U, the self-cleavage was 0.05. Variant A4U G7U G30U U34A has a self-cleavage of 0.02. Work on G19U G27C G40A yielded a self-cleavage of 0.09. Variant A6G G19A G22C C42U has a self-cleavage of 0.02. C10A G27C C31G G40C A41U U43G C45U showed a self-cleavage of 0.01. A25C G35U C37U showed a self-cleavage of 0.04. Work on C13A A14C C15U A25U G30A yielded a self-cleavage of 0.04. In the case of C8G C15A C23A G44C, the self-cleavage is reported as 0.02. Variant U9C G22C A25G has a self-cleavage of 0.01. For C8G A14G G35U G44U, the self-cleavage was 0.02. G5U G7A G22U showed a self-cleavage of 0.27. For A4G C13A A26C U34G, the self-cleavage was 0.31. G2C A6G C18G gave a self-cleavage of 0.08. Variant A12G G17C C31U has a self-cleavage of 0.03. Variant G1U G5U G33C has a self-cleavage of 0.06. Variant C10A C13A U28A G30U U38A U43A has a self-cleavage of 0.03. G21U G22A G40U gave a self-cleavage of 0.05. With A6G U9C A25G G30C A41U the self-cleavage was 0.02. In the case of G5C C15U C23G U38G, the self-cleavage is reported as 0.03. A16G G17A U38A gave a self-cleavage of 0.05. In the case of C23A U34G C37U, the self-cleavage is reported as 0. Variant A6C G7A G40A has a self-cleavage of 0.08. Work on A14U U34A U38A yielded a self-cleavage of 0.25. With A6U G22U U34G C37G the self-cleavage was 0.08. G7A A11G U20C gave a self-cleavage of 0.04. For U9C A24G A39C, the self-cleavage was 0. Work on G2C A6G C37G yielded a self-cleavage of 0.03. With G7A A16U G35C the self-cleavage was 0.05. For U9A A11U C13A G29U A39U C42G, the self-cleavage was 0.02. In the case of A12U C15A G19U G35A, the self-cleavage is reported as 0.02. In the case of G1U C15G G33A A39U C46G, the self-cleavage is reported as 0. C8G C15G C18A G35U gave a self-cleavage of 0.01. C10A C13U G19U gave a self-cleavage of 0.01. With C3U C18G G27U G33C the self-cleavage was 0.01. With C13G U20C G30U C37G A41G the self-cleavage was 0.01. With C10A U28C U38C the self-cleavage was 0.07. G5A G27U G33A gave a self-cleavage of 0.08. C8G G17C G27C C37U showed a self-cleavage of 0.01. For U9G U28G G29C C42G, the self-cleavage was 0.01. In the case of G1A A11G G33C, the self-cleavage is reported as 0.04. A16U U34A G36C gave a self-cleavage of 0.01. With C10U G22U G29A U32A G33A G35A the self-cleavage was 0.02. C8G C15A C23A A25C A26G showed a self-cleavage of 0.08. Variant C8G C23U A26U has a self-cleavage of 0.07. A6C G30C G35A C45U showed a self-cleavage of 0.05. C10A A24C A41U C45A showed a self-cleavage of 0. C8A C23U A39U gave a self-cleavage of 0.12. With A26U U28C G44A C45G the self-cleavage was 0.05. Variant A16C A26U G29U A41G has a self-cleavage of 0.18. With C8U G36A A41G the self-cleavage was 0.66. In the case of G2A A14U C31U U32C U43A, the self-cleavage is reported as 0.17. For A11U U20C G33C, the self-cleavage was 0. Work on G27C G36C G40U yielded a self-cleavage of 0.04. With C8G G33A C46U the self-cleavage was 0.06. For C8A C15U G22A G35C U43G, the self-cleavage was 0.47. G2U G35U U43A gave a self-cleavage of 0.09. With A11C A26U G29U the self-cleavage was 0.02. With A6U C8G C31G C45A the self-cleavage was 0.04. With G7C C10U A16U A24C G27U G29A G40A the self-cleavage was 0.01. Work on G1U G7C G27U G30U G44C yielded a self-cleavage of 0.11. Variant C37G U43C C46A has a self-cleavage of 0.15. G5A C8A C15A C42U gave a self-cleavage of 0.1. With A4G A11U A12U A14C G27U the self-cleavage was 0.01. Variant A4G G35U C46A has a self-cleavage of 0.03. Work on G5U A6C G40A yielded a self-cleavage of 0.11. C13A G17U G21A G29C G30A U43C showed a self-cleavage of 0. G5A C13G G35A G44U gave a self-cleavage of 0.04. G7C U9C A14C G21A G27C showed a self-cleavage of 0.03. C15U G19U U20G U28G C46G gave a self-cleavage of 0.67. C18G G22C C37U showed a self-cleavage of 0.07. Work on A6G C18A G35C yielded a self-cleavage of 0.06. For G2A G40U U43A, the self-cleavage was 0.24.
